From PubChem BioAssay AID588453 (National Center for Advancing Translational Sciences (NCATS), 2011)
Values joined by “and” are separate entries in the source; they are usually repeats but may differ in a detail not shown here. Identical values can stand only once. About 4,000 (1%) of roughly 390,000 compounds were called active. The shares of active, inactive and inconclusive entries below differ from those in the screen. The call rests on the fitted dose curve; in most records, active means well fitted inhibition curve with a large enough effect; inconclusive means small, poorly fitted or top-dose-only effect; inactive means no such curve, though single readings can be large or run the other way. Potencies beside an inconclusive call are fits to weak or partial responses and may not hold up.

Target: Thioredoxin reductase 1, cytoplasmic (Rattus norvegicus) (UniProt O89049)
Test: qHTS Assay for Inhibitors of Mammalian Selenoprotein Thioredoxin Reductase 1 (TrxR1): qHTS; further: nearly all actives have a fitted effect of over 65% in size
Details: recombinant rTrxR1, NADPH fluorescence consumption, selenite substrate; series mostly up to 114 µM; activity change, negative = inhibition: at the top concentration
In short: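 Rat TrxR1 (90 nM in the dispensed reagent) was pre-reduced with 400 uM NADPH for 5 min at room temperature, then incubated with compound for 15 min. After 400 uM selenite was added, NADPH fluorescence (Ex 340/Em 450 nm) was followed for 8 min.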
On the % scale 0 is the no-effect control and ±100 the full control effect; potency means the concentration at half of the fitted maximal effect; tags describe the fitted curve by direction and shape.

Sequence of UniProt O89049 (O89049 whole entry, looked up): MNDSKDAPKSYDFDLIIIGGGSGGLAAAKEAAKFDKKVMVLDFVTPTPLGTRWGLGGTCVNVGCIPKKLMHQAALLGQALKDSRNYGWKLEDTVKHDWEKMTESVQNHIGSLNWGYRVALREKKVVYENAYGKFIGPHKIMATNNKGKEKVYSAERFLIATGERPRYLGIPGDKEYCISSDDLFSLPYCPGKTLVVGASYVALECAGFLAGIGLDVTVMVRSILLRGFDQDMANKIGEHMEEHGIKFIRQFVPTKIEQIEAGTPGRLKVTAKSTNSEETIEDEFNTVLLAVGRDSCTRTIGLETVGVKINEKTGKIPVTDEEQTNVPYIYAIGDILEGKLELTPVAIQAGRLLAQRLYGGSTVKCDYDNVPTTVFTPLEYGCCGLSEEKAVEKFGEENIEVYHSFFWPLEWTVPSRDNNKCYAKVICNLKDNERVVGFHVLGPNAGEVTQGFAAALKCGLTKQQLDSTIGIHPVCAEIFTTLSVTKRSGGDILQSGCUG

SMILES	activity change, negative = inhibition	Potency
CN(C)CCNc1nc2sc3c(c2c(=O)n1CCc1ccccc1)CCCCC3	inactive: 17.1%	–
Cc1ccc2nc(-c3ccco3)c(Nc3ccccc3)n2c1	–	inconclusive: 28.2 µM [inhibitor, partial curve, poor fit]
Cc1ccc(S(=O)(=O)NCC(=O)OCC(=O)c2ccc(Cl)s2)cc1	–	inconclusive: 89.1 µM [inhibitor, single point]
Cc1cccc(NCc2ccc(O)c3ncccc23)c1C	–	inconclusive: 1.41 µM [inhibitor, full curve]
O=C(NC(=S)Nc1ccc(N2CCOCC2)c(Cl)c1)c1cncc(Br)c1	–	inconclusive: 14.1 µM [inhibitor, partial curve]
CCn1cnc2cc(NCc3ccc(N(C)C)cc3)ccc21	–	inconclusive: 7.94 µM [inhibitor, partial curve, poor fit] and inconclusive: 12.6 µM [inhibitor, partial curve]
COCCNC(=S)N/N=C1\CC(C)CC(C)(C)C1 (configuration not stated)	inactive: 11.6% [at 57.1 µM]	–
Cc1cccc(S(=O)(=O)c2c(N)n(-c3ccccc3)c3nc4ccccc4nc23)c1	–	inconclusive: 25.1 µM [inhibitor, single point]
O=C(NC(=S)Nc1ccc(N2CCOCC2)cc1)c1ccccc1	–	inconclusive: 22.4 µM [inhibitor, single point]
Nc1nccnc1C(=O)OCC(=O)Nc1ccc2[nH]c(=O)[nH]c2c1	–	inconclusive: 31.6 µM [inhibitor, partial curve, poor fit]
CCCCCCCCCCCCCCCC[n+]1ccc(/C=N/O)cc1	–	inconclusive: 50.1 µM [inhibitor, partial curve, poor fit]
CC(C)CC(=O)NC(=S)Nc1cccc(NC(=O)c2ccccc2Cl)c1	–	inconclusive: 20 µM [inhibitor, full curve]
CCN(N=O)c1ccc(/C=C2\C=Cc3ccccc32)cc1	inactive: -35.4%	–
O=C(c1ccc(Cl)c(Cl)c1)N(Cc1ccco1)c1ccc(O)cc1	inactive: 5.77%	–
Cc1cccc(Nc2nc(N)nc(-c3oc4ccccc4c3C)n2)c1	–	inconclusive: 89.1 µM [inhibitor, single point]
C/C=C1\COC(C(=O)NCCN2CCOCC2)(C(F)(F)F)C=C1C=C1CCCCC1 (configuration not stated)	–	inconclusive: 17.8 µM [inhibitor, partial curve, poor fit]
Cc1noc(C)c1C(=O)Nc1nccs1	inactive: -23.4%	–
COCCNC(=O)c1ccccc1NC(=O)c1ccc(OC)c(OC)c1	inactive: -7.81%	–
COc1ccc(C(C)=O)cc1COC(=O)c1cccnc1SC	–	inconclusive: 22.4 µM [inhibitor, partial curve]
O=C(Nc1nnc(-c2ccc(F)cc2)o1)c1ccc(S(=O)(=O)N2CCOCC2)cc1	inactive: 2.79%	–
O=C(CSc1oc(-c2ccco2)nc1S(=O)(=O)c1ccccc1)NCC1CCCO1 (configuration not stated)	–	inconclusive: 20 µM [inhibitor, single point]

SMILES	activity change, negative = inhibition	Potency
O=C(CN1C(=O)c2ccccc2C1=O)Nc1sc2c(c1C(=O)NCc1ccco1)CCCC2	–	inconclusive: 89.1 µM [inhibitor, single point]
O=S(=O)(c1ccccc1)c1nc(-c2ccccc2)oc1NCCCN1CCOCC1	–	inconclusive: 70.8 µM [inhibitor, partial curve]
O=C(CNC(=O)c1ccc(N2C(=O)c3ccccc3C2=O)cc1)OCC(=O)c1ccccc1	inactive: 11.7%	–
O=Cc1ccnc2ccccc12	inactive: 5.54%	–
O=C1CCCCC1Sc1ccc(Cl)cc1[N+](=O)[O-] (configuration not stated)	–	inconclusive: 79.4 µM [inhibitor, single point]
CCOC(=O)COc1ccccc1/C=N\NC(=O)c1cc2c(ccc3ccccc32)o1	–	inconclusive: 89.1 µM [inhibitor, single point]
Cc1c(O)ccc(C(=O)CN2CCN(c3ccc(F)cc3)CC2)c1O	–	inconclusive: 50.1 µM [inhibitor, partial curve, poor fit]
CN(Cc1ccco1)C(=O)C1CCC(=O)N(CCc2cccc(F)c2)C1 (configuration not stated)	–	inconclusive: 89.1 µM [inhibitor, single point]
Cc1ccc(C(=O)CSc2nnc(-c3ccco3)n2CC2CCCO2)cc1 (configuration not stated)	–	inconclusive: 35.5 µM [inhibitor, partial curve, poor fit]
CC12CCC=CC1C(c1cccc([N+](=O)[O-])c1)N(Cc1ccccc1)C2=O (configuration not stated)	–	inconclusive: 31.6 µM [inhibitor, single point]
COc1ccc(-c2cc(C(F)(F)F)nc(N)n2)cc1	inactive: 11.8%	–
COc1ccccc1N1CCN(CC(O)COc2cccc3ccccc23)CC1 (configuration not stated)	–	inconclusive: 7.08 µM [inhibitor, full curve] and inconclusive: 29.9 µM [inhibitor, partial curve, poor fit]
COC(=O)[C@]1(C)N[C@H](CN(C)S(=O)(=O)c2ccc(C(F)(F)F)cc2)[C@@H]2C(=O)N(C)C(=O)[C@@H]21	–	inconclusive: 39.8 µM [inhibitor, single point]
COc1ccc(C)cc1NC(=O)CCS(=O)(=O)c1cccc2nonc12	–	inconclusive: 50.1 µM [inhibitor, partial curve]
CN1CCC(=C2c3ccccc3CC(=O)c3sccc32)CC1	–	inconclusive: 37.7 µM [inhibitor, single point]
S=C(Nc1ccccc1Cl)Nc1ccc(Cl)cc1Cl	–	inconclusive: 12.6 µM [inhibitor, full curve, poor fit]
Cc1ccc(-c2c3c(=O)n(C)c(=O)n(C)c3cn2Cc2ccccn2)cc1	–	inconclusive: 17.8 µM [inhibitor, partial curve, poor fit]
COc1cc2nc(N3CCN(C)CC3)nc(NC(C)C)c2cc1OC	–	inconclusive: 79.4 µM [inhibitor, single point]
CCCN1CCN(C(=S)Nc2ccccc2C(F)(F)F)CC1	–	inconclusive: 56.2 µM [inhibitor, partial curve]
CC1(C)C(=O)Nc2ccccc2N1C(=O)COC(=O)c1cccc(O)c1	inactive: 16.7%	–
COc1ccccc1NC(=O)Cc1nc(CCl)cs1	–	inconclusive: 20 µM [inhibitor, full curve]
